About 230 (0.21%) of roughly 110,000 compounds showed an effect of 50% or more. Some of the results follow.
Molecular target: DPAP1 (Plasmodium falciparum, UniProt Q8IIJ9)
Test: primary screen, percent inhibition; read by cleavage of a fluorogenic dipeptide substrate; higher = more effect of the substance
Parameters: species or system P. falciparum D10 trophozoite lysates; single well
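Note: 30 min substrate incubation versus DMSO and 10 µM JCP410 controls.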

Sequence of DPAP1 (Q8IIJ9 whole entry, looked up): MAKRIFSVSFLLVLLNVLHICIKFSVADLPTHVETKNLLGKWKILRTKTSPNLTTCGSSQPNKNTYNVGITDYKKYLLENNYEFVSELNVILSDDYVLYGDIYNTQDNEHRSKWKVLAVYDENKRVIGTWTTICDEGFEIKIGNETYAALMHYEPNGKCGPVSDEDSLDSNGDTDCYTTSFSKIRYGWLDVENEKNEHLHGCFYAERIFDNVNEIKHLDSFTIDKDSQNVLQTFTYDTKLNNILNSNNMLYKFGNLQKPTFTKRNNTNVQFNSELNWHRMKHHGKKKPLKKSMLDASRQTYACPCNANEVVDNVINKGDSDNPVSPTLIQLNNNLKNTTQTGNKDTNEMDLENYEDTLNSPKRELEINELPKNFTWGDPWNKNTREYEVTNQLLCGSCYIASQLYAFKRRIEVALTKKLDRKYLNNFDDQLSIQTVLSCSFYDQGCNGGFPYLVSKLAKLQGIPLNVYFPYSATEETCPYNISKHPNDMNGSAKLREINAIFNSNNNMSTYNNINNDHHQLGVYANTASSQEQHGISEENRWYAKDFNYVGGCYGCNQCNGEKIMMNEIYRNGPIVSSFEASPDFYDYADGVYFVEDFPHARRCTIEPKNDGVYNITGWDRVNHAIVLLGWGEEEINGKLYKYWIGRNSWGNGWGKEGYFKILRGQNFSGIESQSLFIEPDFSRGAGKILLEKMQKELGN

| Compound | % Inhibition @ 10 uM |
| --- | --- |
| O=C1C(/C=N/c2cccc(C(F)(F)F)c2)=C(O)c2ccccc21 | 0.76% |
| O=C(/C=C/c1cccc([N+](=O)[O-])c1)Nc1ccc(Cl)c(Cl)c1 | -0.828% |
| O=C(O)CCN1C2=C(C(=O)CCC2)C(c2ccccc2OCc2ccccc2)C2=C1CCCC2=O | -1.5% |
| CCN1CCCC1CNC(=O)c1cn(C2CCCC2)c(=O)c2c1c1ccccc1n2C (centres unmarked) | -5.27% |
| COc1cc(C2C3=C(CCCC3=O)OC3=C2C(=O)CCC3)ccc1OCC(=O)Nc1ccccc1 | -0.854% |
| O=C(CCn1c(SCc2cccnc2)nc2c(sc3ccccc32)c1=O)NCC1CCCO1 (centres unmarked) | 9.51% |
| COc1ccc(NS(=O)(=O)c2ccc(F)cc2)cc1 | -3.94% |
| OCCN1CCN(Cc2cccc(Br)c2)CC1 | -1.48% |
| COCCNC(=O)c1ccc(-n2c(-c3ccccc3)cc3c2CCCC3)cc1 | -5.69% |
| O=C(c1ccc(CNc2c(N3CCCC3)c(=O)c2=O)cc1)N1CCN(C2CCCCC2)CC1 | 2.84% |
| O=C(Nc1ccc2c(c1)OCO2)NC1CCCCC1 | 2.01% |
| O=C1c2ccccc2C(=O)c2c1cccc2S(=O)(=O)NCc1ccccc1 | 2.24% |
| O=C(C1CCN(c2nnc(-n3cccc3)s2)CC1)N1CCN(Cc2ccccc2)CC1 | -2.25% |
| O=C(O)CCNC(=O)OCC1c2ccccc2-c2ccccc21 | 19% |
| Cc1ccc(S(=O)(=O)NC(C)C(=O)NC2CC2)cc1 (centres unmarked) | 5.51% |
| Cc1ccc(/C=C2/NC(=O)N(Cc3ccccc3)C2=O)s1 | 3.72% |
| Cc1ccccc1N/C=C1/C(=O)NC(=O)N(c2cccc(Cl)c2)C1=O | 2.69% |
| COC(=O)C1CCCN1CP(=O)(O)CN1CCCC1C(=O)OC (centres unmarked) | -2.77% |
| Cc1ccccc1NC(=O)c1cc(F)c(Cl)nc1Cl | -5.23% |
| CC(=O)c1nn(-c2ccc(OC(F)(F)F)cc2)nc1Nc1nncs1 | -4.91% |
| CCOc1ccc2c(c1)C(C)=CC(C)(C)N2Cc1ccc(CN2c3ccc(OCC)cc3C(C)=CC2(C)C)cc1 | -0.771% |

| Compound | % Inhibition @ 10 uM |
| --- | --- |
| CCOc1ccccc1C1C2=C(CC(C)(C)CC2=O)N(CC)C2=C1C(=O)CC(C)(C)C2 | 0.147% |
| CCN1CCN(C2C3CC4CC(C3)CC2C4)CC1 (centres unmarked) | -10.6% |
| CCOc1ccc(OCC)c(S(=O)(=O)NC(C)c2ccc(-n3ccnc3)cc2)c1 (centres unmarked) | -5.72% |
| Cc1ccc(S(=O)(=O)N2Cc3ccccc3C(C)CC23CCCCC3)cc1 (centres unmarked) | 2.78% |
| CCOc1cccc2c1Oc1nc(-c3ccccc3)nc(SCC(=O)O)c1C2 | 6.55% |
| CCc1ccc(NC(=O)C2CCN(S(=O)(=O)c3cc(Cl)ccc3Cl)CC2)cc1 | -4.06% |
| CCOc1cc2c(cc1OCC)C(C1CCCCC1)NCC2 (centres unmarked) | -1.61% |
| CCOC(=O)c1cnc2ccc([N+](=O)[O-])cc2c1O | -4.35% |
| O=C(O)C1CC=CCC1C(=O)Nc1cccc(O)c1 (centres unmarked) | -5.4% |
| O=C1N/C(=C/c2ccco2)C(=O)N1c1cccc(Cl)c1 | -2.67% |
| Cc1ccc(CNCc2ccc(C(=O)O)s2)cc1 | 1.03% |
| Cc1ccc(-n2nc3c(c2NC(=O)c2ccccc2C)CS(=O)(=O)C3)cc1 | 3.94% |
| CCCCNC(=O)c1cc(-c2ccco2)on1 | -5.77% |
| Cc1cc2nc(-c3cccs3)cc(C(F)(F)F)n2n1 | -3.97% |
| Cc1nn(CC(=O)NC(C)C23CC4CC(CC(C4)C2)C3)c(=O)c2cc3sccc3n12 (centres unmarked) | -1.58% |
| CCOC(=O)N1CCN(C(=O)c2cn(C3CCCCC3)c(=O)c3c2c2ccccc2n3C)CC1 | -3.39% |
| Cc1ccc(C(C)C)c(OCC(=O)Nc2ccc(S(=O)(=O)Nc3cc(C)nc(C)n3)cc2)c1 | 0.528% |
| CC1=CC=CN2C1=NC(C(F)(F)F)(C(F)(F)F)N=C2c1ccccc1 | -5.4% |
| Cc1ccc(C2C(C#N)=C(N)Oc3[nH]nc(C(F)(F)F)c32)cc1 (centres unmarked) | 4.7% |
| O=C(CN(Cc1ccccc1)S(=O)(=O)c1ccc(Cl)cc1)Nc1cccc(F)c1 | -11% |
| CCOc1cccc(C(=O)Nc2ccc(N3CCN(C(=O)C(C)C)CC3)c(Cl)c2)c1 | -5.32% |

| Compound | % Inhibition @ 10 uM |
| --- | --- |
| O=C(CSCc1cnn(-c2ccccc2)c1-n1cccc1)N1CCOCC1 | 2.07% |
| O=C(Nc1ccc2ncccc2c1)c1cccc2ccccc12 | 2.7% |
| CC(C)(C)c1cc(Br)cc(C2N(c3ccccc3)CCN2c2ccccc2)c1O | 4.89% |
| COc1ccc(-c2nc(N3CCN(Cc4ccc(Cl)cc4)CC3)nc(O)c2C#N)cc1 | 0.8% |
| Nc1ccc(C(=O)c2ccc(C(=O)O)c(C(=O)O)c2)cc1 | 6.03% |
| COc1cccc([C@H]2NCC[C@@]3(O)CCCC[C@H]23)c1 | -0.0372% |
| CCC(C)n1ncn(-c2ccc(N3CCN(c4ccc(O)cc4)CC3)cc2)c1=O (centres unmarked) | -4.5% |
| COc1ccc(-n2c(C)nc3c(sc4nc5ccccc5cc43)c2=O)cc1 | 0.658% |
| CCOc1ccccc1/C=c1\sc2nnc(-c3cc(OC)c(OC)c(OC)c3)n2c1=O | -0.0735% |
| CCN(CC)CCNC(=O)/C(=C/c1cn(CC)c2ccccc12)NC(=O)c1ccccc1F | -3.52% |
| CC(=O)C1=C(C)OC(N)=C(C#N)C12C(=O)Nc1ccccc12 (centres unmarked) | -1.98% |
| O=C(c1cnccn1)N1CCN(c2ccccc2)CC1 | 1.43% |
| CC(C(=O)N1CCN(Cc2ccc(Cl)cc2)CC1)N1C(=O)c2ccccc2C1=O (centres unmarked) | -0.053% |
| Cc1ccc(C2SCC(=O)N2c2cccc(Cl)c2)cc1 (centres unmarked) | -2.29% |
| O=C1S/C(=C\c2ccco2)C(=O)N1Cc1ccccc1 | -2.6% |
| CCOC(=O)C1=C(N)Oc2[nH]nc(C)c2C1c1ccc(Cl)cc1Cl (centres unmarked) | 6.4% |
| NC(=S)N/N=C/c1c[nH]c2ccccc12 | 5.98% |
| Nc1nonc1-n1nnc(C(=O)N2CCCCC2)c1-c1ccccc1 | 5.98% |
| CS(=O)(=O)c1ccc2nc(NC(=O)C3CCCO3)sc2c1 (centres unmarked) | -4.75% |
| Cc1[nH]nc2c1C1(CCN(C(=O)OC(C)(C)C)CC1)C(C#N)=C(N)O2 | 2.45% |

Reference: article PMC6919601, “Identification of Plasmodium dipeptidyl aminopeptidase allosteric inhibitors by high throughput screening” (PLoS ONE, 2019)
